The other results are listed elsewhere or left out.
B1: chr19:51872534:51873706:-|CDS|ENSG00000161551|control|control|control (ssRNA)
RNA: GGGAGUUCUACAGUCCGACGAUCCCUAGUGGGCAGAAAUGUAGUGAUUGUGGAACAACCUUUUCCAAGAAAUCAAGCCUUUGUAGUUAAUCAGGAAUUUGAACAGAGAAUAAGCCUCACAAAUGAAGUGAAUGUGGCCCCAUCCAACAGAGGAUUGAGCAUCA
B2: chr16:3727180:3727281:-|3pUTR|ENSG00000005339|msi1|FALSE|bound_elsewhere (ssRNA)
RNA: GGGAGUUCUACAGUCCGACGAUCAAUGCAAGCUUAUAAUGUAUCCCGAUAACUUUGUGAUGUUUCGGGAAGAUUUUUUUCUAUAGUGAACUCUGUGGGCGUCUCCCAGUAUUACCCUGGAUGAUAGGAAUUGACUCCGGCGUGCAACAGAGGAUUGAGCAUCA
B3: chr6:11183298:11183399:-|3pUTR|ENSG00000111859|msi1|FALSE|unique (ssRNA)
RNA: GGGAGUUCUACAGUCCGACGAUCACAUUUCACAUUUUUAAAACCAAAUGUUCAAUCUGUAUUACUCUUUGCCGUCUUGUAUGUAGAGGCUAUUUUUAAAUCAUUAAAUUUUUAGAUCUCUGUUUUCAUAGCCACUGGGUUUUCCAACAGAGGAUUGAGCAUCA
B4: chr10:128098031:128098192:-|3pUTR|ENSG00000148773|msi1|total|mutant (ssRNA)
RNA: GGGAGUUCUACAGUCCGACGAUCCAUCUUCAUUUACUUUCCACUUUGCCCCCUGUCCUCUCUGUGUUCCCCAAAUCAGAGAACCGCCCGCCAUCCCCCAGGUCACCUGUCUGGAUUCCUCCCCAUUCACCCACCUUGCCAGGUCAACAGAGGAUUGAGCAUCA
B5: chr13:25097967:25098071:+|CDS|ENSG00000151846|unk|FALSE|unique (ssRNA)
RNA: GGGAGUUCUACAGUCCGACGAUCAGAACUUCUUUAUAUGCUCGAGUCUCCAGAGUCACUCCGUUCUAAGGUUGAUGAAGCUGUAGCUGUACUACAAGCCCACCAAGCUAAAGAGGCUACCCAGAAAGCAGUUAACAGUGCUACCAACAGAGGAUUGAGCAUCA
B6: chr3:149172415:149172516:+|3pUTR|ENSG00000163755|unk|total|mutant (ssRNA)
RNA: GGGAGUUCUACAGUCCGACGAUCUUACCGUGCCGUGGUAACUAUUCACUUCUUAAUUUAUGACCUCAAUCAAUUUAAUUGUCCCGAAUGUAAAAAGUCUUUAAGACAUAAGAAUUCCUCAAAGAAGCCAUACAUUUUUUAAGGCAACAGAGGAUUGAGCAUCA
B7: chr1:21603657:21603912:-|CDS|ENSG00000076864|control|control|control (ssRNA)
RNA: GGGAGUUCUACAGUCCGACGAUCAUUGCUUAUUCCUGGGAAAAGUGCGAGUAGAUUCGGACGCCGGGGCAGUGCCAUAGGCAUAGGAACCGUGGAAGAGGUUGUCGUCCGCGGGGCCGCCGGCUCUGGAGGCUGCCUGCACGCCAACAGAGGAUUGAGCAUCA
B8: chr5:128187618:128187661:+|3pUTR|ENSG00000064651|msi1_unk|FALSE|overlapping (ssRNA)
RNA: GGGAGUUCUACAGUCCGACGAUCUCCUUUAUAAGUCAUUAAAAUAAUGUUUCAUCAAAUGGUUAAAUGGACCACUGGUUUCUUAGAGAAAUGUUUUUAGGCUUAAUUCAUUCAAUUGUCAAGUACACUUAGUCUUAAUACACUCAACAGAGGAUUGAGCAUCA
B9: chr5:36975901:36976008:+|CDS|ENSG00000164190|unk|total|mutant (ssRNA)
RNA: GGGAGUUCUACAGUCCGACGAUCAUGAAAUCCGGCAAGGAUGAAAAAGAGCAGAGUGAGAAAGCGGCAAUGUAUGAUAUAAUCCGUUCUCCAUCCAAGGACUCUACUAAACUUACAUUAAGACUUUCUCGUGUAAGGUCUUCACAACAGAGGAUUGAGCAUCA
B10: chr3:115809552:115809653:-|3pUTR|ENSG00000185565|unk|FALSE|unique (ssRNA)
RNA: GGGAGUUCUACAGUCCGACGAUCCUCCCUCACCUCUCCUCACCUCCACCCCCUCCCCAGAGCACUAGUCAUGCCGCAAAUGCUAGGAAGUGCCAUUUUCAUUUUCUCCACUGUGCGUGUGUGCUCAAGUCUUUCGCUCUCACGCAACAGAGGAUUGAGCAUCA
B11: chr12:2800410:2800520:+|CDS|ENSG00000004478|unk|total|mutant (ssRNA)
RNA: GGGAGUUCUACAGUCCGACGAUCAAAUACAAGCAAGCUUUACUACAGUAUAAGAAGAUCGUGUCUUGGCUGGAAUAUGAGUCCCGUUUUUCCAAUGAGGAAGCACAGAAAGCACAGGCCCUUCGACUGGCCUCUCACCUCAACCAACAGAGGAUUGAGCAUCA
B12: chr12:71139710:71139848:-|CDS|ENSG00000127324|control|control|control (ssRNA)
RNA: GGGAGUUCUACAGUCCGACGAUCUUUUGGUUCUGAAGAUGUAGGCUCUAGCUCCUACGUUGCUGUGGACAUAUUGAUUGCUGUAGGUGCCAUCAUCAUGAUUCUGGGCUUCCUGGGAUGCUGCGGUGCUAUAAAAGAAAGUCGCAACAGAGGAUUGAGCAUCA
B13: ENSG00000142669:stop:overlap|stop_codon|ENSG00000142669|stop_codon|NA|stop_codon (ssRNA)
RNA: GGGAGUUCUACAGUCCGACGAUCAGUACUGUGGGGUAUGGGCUGGGGGACGGGGGGGUGGGGGGAGUGUUGGAAGAGGACUCUAGCCAGGGUCAUAUCUGCCACAAAGCACUUGGGCCCCCUGCAUUCAGGUGACCACCCCUCCAACAGAGGAUUGAGCAUCA
B14: ENSG00000188706:stop:overlap|stop_codon|ENSG00000188706|stop_codon|NA|stop_codon (ssRNA)
RNA: GGGAGUUCUACAGUCCGACGAUCAAGAGAUGCCACCUCCAGAGCCCCCAGAGCCACCACAGGAGGCAGCUGAAGCUGAGAAGUAGCCUAUCUAUGGAAGAGACUUUUGUUUGUGUUUAAUUAGGGCUAUGAGAGAUUUCAGGUCAACAGAGGAUUGAGCAUCA
B15: chr22:21763623:21763656:-|3pUTR|ENSG00000100030|msi1_unk|FALSE|overlapping (ssRNA)
RNA: GGGAGUUCUACAGUCCGACGAUCGUGCUUCCGUCUCCGGAAUCCUUGGGGAGCACUUGUCCACGUCUUUUCUCAUAUCAUGGUAGUCACUAACAUAUAUAAGGUAUGUGCUAUUGGCCCAGCUUUUAGAAAAUGCAGUCAUUUCAACAGAGGAUUGAGCAUCA
B16: chr17:78853230:78853302:-|3pUTR|ENSG00000035862|msi1_unk|FALSE|overlapping (ssRNA)
RNA: GGGAGUUCUACAGUCCGACGAUCCUCUUCUCCUAUUUUCAUCCUGCAAGCAACUCAAAAUAUUUAAAAUAAAGUUUACAUUGUAGUUAUUUUCAAAUCUUUGCUUGAUAAGUAUUAAGAAAUAUUGGACUUGCUGCCGUAAUUCAACAGAGGAUUGAGCAUCA
B17: chr17:61865808:61865921:-|3pUTR|ENSG00000108506|unk|FALSE|unique (ssRNA)
RNA: GGGAGUUCUACAGUCCGACGAUCUUCUAUGAGAAUGAGUUUGUAGCUGUUUCAAAUCAUGAAGUGCAUAGUAUCACAUGUGAUAGAAUAUUUAUAACUUUUUAUUAGAUGCUUAAUGUUCAAUUAAGUAAUUUUGAUGUGAAACAACAGAGGAUUGAGCAUCA
B18: chr8:144773268:144774605:-|CDS|ENSG00000196378|control|control|control (ssRNA)
RNA: GGGAGUUCUACAGUCCGACGAUCCACCAGAGGAUUCACACUGGGGAGAAACCCUACAAGUGUGGGGAGUGUGGGAAGCACUUUAGCGCCUACUCUUCCCUGAUUUAUCACCAGAGAAUCCACACCGGAGAGAAACCCUAUAAACAACAGAGGAUUGAGCAUCA
B19: chr19:18196783:18197469:-|three_prime_utr|ENSG00000105649|control|control|control (ssRNA)
RNA: GGGAGUUCUACAGUCCGACGAUCACUACCCGGGCCUGACCCGGCCCCUACCAGCCACGGGCACAAGACCCCUGCUCCUGACUUAGCCCGUCACCCUUAUUUAUUAUUGUAGCUAUUUAUUUAUUUAUUGAAGAUGUCCCCCAGCAACAGAGGAUUGAGCAUCA
B20: chr12:57516587:57516808:-|three_prime_utr|ENSG00000175197|control|control|control (ssRNA)
RNA: GGGAGUUCUACAGUCCGACGAUCCCCCCACUUGGGCCACACUACCCACCUUUCCCAGAAGUGGCUACUGACUACCCUCUCACUAGUGCCAAUGAUGUGACCCUCAAUCCCACAUACGCAGGGGGAAGGCUUGGAGUAGACAAACAACAGAGGAUUGAGCAUCA
B21: chr5:137752703:137752764:-|3pUTR|ENSG00000177733|msi1_unk|total|mutant (ssRNA)
RNA: GGGAGUUCUACAGUCCGACGAUCGGGAGGGAGUGAACUUGCUGAUUCUGCCGCAAAACCUGGGUGGGGGUUGGGGUGGGGGGCCGUUUACUUUGUUGUAAGGACUUGAUAACCUGGCUACAGCGUUUUCUAUGAAAUCUACUUCAACAGAGGAUUGAGCAUCA
B22: chr4:54297753:54297953:+|3pUTR|ENSG00000134853|msi1|FALSE|unique (ssRNA)
RNA: GGGAGUUCUACAGUCCGACGAUCUUUUUAUGAUGACAAUCAAAGCCGGCCUGAGAAACACUAUUUGUGACUUUUUAAACGAUUAGUGAUGUCCUUAAAAUGUGGUCUGCCAAUCUGUACAAAAUGGUCCUAUUUUUGUGAAGACAACAGAGGAUUGAGCAUCA

Target: MSI1 full-length (mouse, UniProt Q61474 1-362)
Test: nsRBNS (natural sequence RNA bind-n-seq); RBNS binding buffer (assumed for nsRBNS): 25 mM Tris pH 7.5, 150 mM KCl, 3 mM MgCl2, 0.01% Triton X-100, 500 ug/ml BSA, 20 U/ml SUPERase-In, 4 C; UNK is unkempt and MSI1 is Musashi-1; names of the RNAs are library labels; protein concentration not given here; high values mean tight binding

Sequence of UniProt Q61474 (Q61474 whole entry): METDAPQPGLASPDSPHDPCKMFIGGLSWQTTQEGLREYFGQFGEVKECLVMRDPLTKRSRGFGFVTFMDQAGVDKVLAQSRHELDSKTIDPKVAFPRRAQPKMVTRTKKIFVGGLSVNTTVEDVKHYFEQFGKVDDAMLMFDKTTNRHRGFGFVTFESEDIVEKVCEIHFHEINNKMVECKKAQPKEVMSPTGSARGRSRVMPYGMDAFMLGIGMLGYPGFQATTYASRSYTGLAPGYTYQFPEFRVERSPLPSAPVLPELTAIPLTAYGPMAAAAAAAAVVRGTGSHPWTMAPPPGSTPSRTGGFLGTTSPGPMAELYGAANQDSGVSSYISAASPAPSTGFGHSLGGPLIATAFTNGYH

Binder	binding signal
B1	1.45 enrichment R
B2	0.573 enrichment R
B3	2.37 enrichment R
B4	1.07 enrichment R
B5	0.377 enrichment R
B6	0.742 enrichment R
B7	0.478 enrichment R
B8	15.5 enrichment R
B9	0.273 enrichment R
B10	0.88 enrichment R
B11	0.381 enrichment R
B12	0.324 enrichment R
B13	0.5 enrichment R
B14	0.544 enrichment R
B15	0.893 enrichment R
B16	3.7 enrichment R
B17	5.16 enrichment R
B18	0.316 enrichment R
B19	48.8 enrichment R
B20	0.549 enrichment R
B21	0.73 enrichment R
B22	0.329 enrichment R

Reference: article PMC12136788
